From PubChem BioAssay (NCATS) come the findings set out here.

Assay [1] is described as follows: qHTS drug screen for cell cycle checkpoint inhibitors in PARPi-resistant BRCA-mutant ovarian cancer cell lines. (AID 1963452). The settings on record: PEO1/OlaR viability, CellTiter-Glo luminescence, 96 h. In short, it runs like this: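 PEO1, PEO4 and PEO1/OlaR ovarian cancer cells, 600 per well, exposed 96 h at 37C to a dilution series. Viability read by CellTiter-Glo luminescence, normalized to DMSO and empty wells; activity summarized as Z-AUC.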

Assay [2] is described as follows: qHTS for identification of novel therapeutic agents for treatment of microphthalmiaassociated transcription factor (MiT) renal cell carcinoma (RCC) (AID 1963991). Conditions: CellTiter-Glo, 48 h; for z-score: stronger effect = lower value. In short, it runs like this:
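Viability of three TFE3-fusion renal carcinoma lines measured by CellTiter-Glo after 48 h treatment with each of 1912 compounds at 11 concentrations. Responses scaled between DMSO (100%) and empty wells (0%) before curve fitting.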

Assay [3] can be described thus: qHTS Validation Assay to Find Inhibitors of Chronic Active B-Cell Receptor Signaling (AID 485345). The settings on record: ABC-DLBCL cells, chronic BCR signaling reporter. In outline: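 TMD8 ABC-DLBCL cells stably carrying doxycycline-inducible IkappaBalpha–green luciferase fusion plus unfused red luciferase; compounds 46 uM to 3 nM, 4 h at 37C with doxycycline. Corrected green/red luminescence ratio normalized to 10 uM MG-132 and basal cell wells; curves fitted.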
A general note: qHTS replaces the single test concentration by a dilution series.

A short description of assay [4]: qHTS assay for small molecule antagonists of peroxisome proliferator-activated receptor delta signaling (AID 588535).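 Further: cells co-treated with a PPAR-delta agonist as stimulator during compound exposure.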 The settings on record: HEK293T PPARd-UAS-bla, beta-lactamase FRET ratio, 18 h; 460 nm channel. In short, it runs like this: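 Beta-lactamase reporter read-out (405 nm excitation, 460/530 nm emission) after CCF4 loading for 2 hrs at RT. HEK293T PPAR-delta-UAS-bla cells, 2% charcoal/dextran FBS, compounds for 18 hrs at 37 C. Hill fit gave IC50 and efficacy.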

Assay [5] can be described thus: qHTS assay for small molecule agonists of retinoid X receptor alpha signaling (AID 588544). Conditions: HEK293T RXRa-UAS-bla, beta-lactamase reporter, 18 h; 530 nm emission.
The nature of assay [6]: Nrf2 qHTS screen for inhibitors: Validation (AID 493153). The settings on record: A549 ARE-Fluc reporter, 18-24 h; AC50: CellTiter-Fluor fluorescence read, measured here: cytotoxicity CellTiter-Fluor AC50; viability change: measured here: cytotoxicity max response. In outline: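 Concentration-response test in A549 ARE_Fluc reporter cells (5% FBS OPTI-MEM), compound exposure 18-24 h at 37°C, 5% CO2. Cell viability measured first by CellTiter-Fluor fluorescence; ARE-driven luciferase luminescence then measured as Nrf2 activity.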

[7] abbreviates: measured here: PEO1 parental viability.
Where [8] appears, read: TFE3-RCC UOK109 viability, measured here: UOK109 Z-AUC.
Where [9] appears, read: TFE3-RCC viability, measured here: UOK124 Z-AUC.
Where [10] appears, read: TFE3-RCC viability, measured here: UOK124 cell viability.
Setting [11] is: TFE3-RCC viability, measured here: UOK145 Z-AUC.
[12] abbreviates: TFE3-RCC viability, measured here: UOK145 cell viability.
Setting [13] is: measured here: CBG/CBR ratio read-out.
[14] abbreviates: measured here: CBR control luciferase (viability counter).

This is one part of the list. These are further read-outs of the screen, such as a control signal, another cell line or another target. No call is given for them. For some of these results: Compounds called inactive in the main read-out are mostly missing here. For some of these results: Potencies come from curve fits of mixed quality, noted in brackets.
Tags describe the fitted curve by direction and shape.

As for `FC(F)(F)c1ccc(Nc2nc3ccc(Oc4ccnc(-c5ncc(C(F)(F)F)[nH]5)c4)cc3[nH]2)cc1`, the AC50 in assay [1] (setting [7]) is 19.5 µM [falling, single point]; in assay [1] (measured here: PEO4 viability), 6.92 µM [falling, partial curve]; in assay [2] (setting [10]), 11.8 µM [falling, partial curve]; in assay [2] (setting [12]), 14.8 µM [falling, partial curve]. In addition, the z-score in assay [2] (setting [8]) was 0.454; in assay [2] (setting [9]), -0.0691; in assay [2] (setting [11]), -0.276.

As to `CC(=O)N1CCN(c2ccc(OC[C@H]3CO[C@](Cn4ccnc4)(c4ccc(Cl)cc4Cl)O3)cc2)CC1`, the AC50 in assay [3] (setting [13]) was 13 µM [falling, partial curve]; in assay [3] (setting [14]) it was 16.4 µM [falling, single point]; in assay [1] (setting [7]), 19.5 µM [falling, single point]; in assay [1] (measured here: PEO4 viability) it was 19.5 µM [falling, partial curve, poor fit]; in assay [2] (setting [10]) it was 23.5 µM [falling, partial curve]; in assay [2] (setting [12]) it was 11.8 µM [falling, partial curve, poor fit]. Also, in assay [4], the max response is -43.8%. The z-score was 0.381 in assay [2] (setting [8]), 0.034 in assay [2] (setting [9]) and 3.12 in assay [2] (setting [11]).

As for `Nc1nc(Cl)nc2c1ncn2[C@H]1C[C@H](O)[C@@H](CO)O1`, the max response in assay [4] is 172%; in assay [5] it was 22.3%. In addition, the AC50 in assay [1] (setting [7]) was 0.49 µM [falling, full curve]; in assay [1] (measured here: PEO4 viability), 0.347 µM [falling, full curve]; in assay [2] (setting [10]) it was 7.43 µM [falling, full curve]; in assay [2] (setting [12]), 0.833 µM [falling, full curve]. The z-score was -0.419 in assay [2] (setting [8]), 0.467 in assay [2] (setting [9]) and -1.19 in assay [2] (setting [11]).

`Nc1ccccc1NC(=O)c1ccc(CNC(=O)OCc2cccnc2)cc1`: the AC50 is 7.76 µM [falling, partial curve] in assay [1] (setting [7]); 7.76 µM [falling, partial curve] in assay [1] (measured here: PEO4 viability); 16.6 µM [falling, partial curve] in assay [2] (setting [10]); 10.5 µM [falling, partial curve] in assay [2] (setting [12]). Further, the z-score was 0.0492 in assay [2] (setting [8]), -0.0642 in assay [2] (setting [9]) and -0.0344 in assay [2] (setting [11]).

Regarding `COc1cc2nc(N3CCCN(C)CC3)nc(NC3CCN(Cc4ccccc4)CC3)c2cc1OC`, the AC50 in assay [6] is 11.6 µM [falling, partial curve, poor fit]; in assay [1] (setting [7]), 15.5 µM [falling, single point]; in assay [1] (measured here: PEO4 viability) it was 17.4 µM [falling, partial curve]; in assay [2] (setting [10]), 4.69 µM [falling, full curve]; in assay [2] (setting [12]), 9.35 µM [falling, full curve]. Also, the viability change in assay [6] is -50%. The z-score in assay [2] (setting [8]) was -0.457; in assay [2] (setting [9]) it was -1.58; in assay [2] (setting [11]) it was -0.261.

Regarding `CC(C)(C)c1cnc(CSc2cnc(NC(=O)C3CCNCC3)s2)o1`, the AC50 in assay [1] (setting [7]) was 0.174 µM [falling, full curve]; in assay [1] (measured here: PEO4 viability), 0.347 µM [falling, full curve]; in assay [2] (setting [10]), 1.18 µM [falling, full curve]; in assay [2] (setting [12]), 0.662 µM [falling, full curve]. For the same molecule, the z-score in assay [2] (setting [8]) was -0.83; in assay [2] (setting [9]), -0.448; in assay [2] (setting [11]), -1.36.

In the case of `Nc1nc(N)c(N=O)c(OCC2CCCCC2)n1`, the AC50 in assay [3] (setting [13]) is 11.6 µM [falling, partial curve]; in assay [3] (setting [14]), 13 µM [rising, partial curve]; in assay [1] (setting [7]), 13.8 µM [falling, partial curve]; in assay [1] (measured here: PEO4 viability), 11 µM [falling, partial curve]; in assay [2] (setting [10]), 10.5 µM [falling, partial curve]; in assay [2] (setting [12]), 18.7 µM [falling, partial curve]. For the same molecule, the results for the z-score in assay [2] (setting [8]), in assay [2] (setting [9]) and in assay [2] (setting [11]) were 0.629, -0.247 and 0.0404, respectively.

Regarding `c1nc2nc(Nc3ccc(N4CCOCC4)cc3)nc(NC3CCCCC3)c2[nH]1`, the AC50 in assay [1] (setting [7]) was 8.71 µM [falling, partial curve]; in assay [1] (measured here: PEO4 viability) it was 7.76 µM [falling, partial curve, poor fit]; in assay [2] (setting [10]), 18.7 µM [falling, partial curve]; in assay [2] (setting [12]), 20.9 µM [falling, partial curve]. The z-score in assay [2] (setting [8]) is -0.216; in assay [2] (setting [9]) it was 0.126; in assay [2] (setting [11]), 0.0537.

Regarding `COc1cc2c(c(OC)c1OC)-c1ccc(OC)c(=O)cc1[C@@H](NC(C)=O)CC2`, the AC50 in assay [3] (setting [13]) is 0.231 µM [falling, full curve]; in assay [3] (setting [14]), 2.31 µM [rising, partial curve]; in assay [1] (setting [7]), 0.0616 µM [falling, full curve]; in assay [1] (measured here: PEO4 viability), 0.049 µM [falling, full curve]. Moreover, the z-score in assay [2] (setting [8]) is -2.58; in assay [2] (setting [9]) it was -3.22; in assay [2] (setting [11]) it was -1.26.

In the case of `CN(C)c1ccc(C2Nc3ccc4ccccc4c3C3=C2C(=O)CC(C)(C)C3)cc1Br` (configuration not stated), the AC50 in assay [1] (measured here: PEO4 viability) is 2.75 µM [rising, partial curve, poor fit]. Moreover, the z-score is -0.0824 in assay [2] (setting [8]), 0.546 in assay [2] (setting [9]) and 0.221 in assay [2] (setting [11]).

On to `COc1cc2c(cc1O)CC[C@@H]1[C@@H]2CC[C@]2(C)[C@@H](O)CC[C@@H]12`, for which the AC50 in assay [3] (setting [13]) is 20.6 µM [falling, partial curve]; in assay [3] (setting [14]) it was 7.31 µM [rising, partial curve]; in assay [6], 4.11 µM [falling, partial curve, poor fit]; in assay [1] (setting [7]) it was 0.549 µM [falling, full curve]; in assay [1] (measured here: PEO4 viability) it was 0.871 µM [falling, full curve]. Besides, the viability change in assay [6] is -13.6%.

One may read the AC50 as the concentration at which the activity in the assay is half-maximal.
